From PMC4242493
The other results are listed elsewhere or left out. The list includes weakly bound sequences.

Target: MaxL homodimer (UniProt P61244)
Experiment: universal protein-binding microarray (PBM)
Conditions: PBS-based mixture, 10 nM His-tagged protein dimer, 2% milk, 200 ng/uL BSA, 50 ng/uL salmon testes DNA, 0.02% TX-100; detection with Alexa 488 anti-His …; high values mean tight binding; most listed sequences are background and not binding sites; double strand, one strand shown

Chain of UniProt P61244 (P61244 whole entry): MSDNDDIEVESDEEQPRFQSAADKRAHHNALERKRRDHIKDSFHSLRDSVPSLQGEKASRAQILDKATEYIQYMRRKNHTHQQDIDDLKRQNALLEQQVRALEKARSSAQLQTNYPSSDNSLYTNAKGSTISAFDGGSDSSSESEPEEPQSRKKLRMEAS

Row | Sequence | binding signal (normalized occupancy)
1 | CAGGAGGG | 0.0751
2 | GAGCTACA | 0.0796
3 | CCATACTC | 0.0805
4 | GGTTGACA | 0.0758
5 | CTATTCTC | 0.0763
6 | CCATGGCA | 0.0891
7 | ACGATGCT | 0.0793
8 | GCACATAC | 0.0803
9 | TACTTTAA | 0.0765
10 | CAATGCAG | 0.0809
11 | AATCCCGT | 0.081
12 | CCCCGAAG | 0.0731
13 | AGCCGTCA | 0.0708
14 | CGAACGAC | 0.0697
15 | CTTTCTGC | 0.0723
16 | AATTGCCG | 0.0718
17 | CCGTTACA | 0.0742
18 | CACGTCGG | 0.0826
19 | AATCAACA | 0.0833
20 | AACGCGAC | 0.0746
21 | GGTTACGA | 0.0721
22 | GAAGTTTA | 0.0695
23 | ACCCGGGA | 0.07
24 | ATGATTAG | 0.0832
25 | ACAAATGC | 0.0787

Row | Sequence | binding signal (normalized occupancy)
26 | ACTTCTTA | 0.0765
27 | CAATAGAG | 0.0767
28 | AGGGTTTA | 0.0765
29 | ATTTAGTA | 0.0699
30 | CCAAAAAA | 0.0749
31 | TGGAAACA | 0.081
32 | ACCTCGGC | 0.0711
33 | ACCTCGGG | 0.0783
34 | CAGTTCAA | 0.0741
35 | GGTGCAAA | 0.0755
36 | AATGGTGA | 0.0751
37 | CGGATGCC | 0.0725
38 | GCCTTAGA | 0.0722
39 | TCTGACAA | 0.0733
40 | AAATTCGT | 0.0752
41 | CACTATCC | 0.0788
42 | CCAACCCG | 0.0709
43 | ATCGTCAC | 0.0829
44 | AGGATACC | 0.0753
45 | AGGAGTGA | 0.0707
46 | GAAAAATA | 0.0777
47 | ACGTCTTC | 0.0758
48 | AAAACAAA | 0.0701
49 | CAGCCCAC | 0.0757
50 | CTATATTC | 0.0798

Row | Sequence | binding signal (normalized occupancy)
51 | AAGTACAG | 0.0787
52 | CAACGCAC | 0.0855
53 | AAACCTAT | 0.0761
54 | AGCTGTTA | 0.0759
55 | AATCGGCT | 0.0686
56 | AGATTCAA | 0.0757
57 | CAGGCTCA | 0.0741
58 | CTTGCTAA | 0.0734
59 | ATAGAGAG | 0.076
60 | GATGGAAA | 0.0794
61 | ATGGGTGA | 0.0866
62 | AACCCTAG | 0.078
63 | CTTGCAGC | 0.0684
64 | ACCCCGTG | 0.108
65 | ACGAATGG | 0.0768
66 | TAGACTGA | 0.0725
67 | AAATGTCC | 0.0861
68 | TGTGTGAA | 0.0858
69 | GTTTAGAA | 0.0757
70 | CCTCCGAC | 0.0687
71 | CGGAGACA | 0.0704
72 | GTGCCGGA | 0.0753
73 | ACTAGACA | 0.0757
74 | AGACTATC | 0.0737
75 | ACGTGCAG | 0.101

Row | Sequence | binding signal (normalized occupancy)
76 | CCACAACG | 0.0749
77 | CGTTATGA | 0.0829
78 | CCTGTTTC | 0.0776
79 | CTCTTATA | 0.0797
80 | CGGTTCGA | 0.0691
81 | AAACCCGA | 0.0792
82 | GCAAACCC | 0.0669
83 | ATAATAAG | 0.0821
84 | AGGCAAAT | 0.0733
85 | ATAAACCG | 0.077
86 | GCCTGATA | 0.0794
87 | CAGCCGAA | 0.0724
88 | CATCCCGG | 0.074
89 | CACATCAG | 0.0776
90 | CATCCACA | 0.0859
91 | AGGCTACG | 0.0723
92 | GCGTAGCC | 0.0663
93 | ACGAAGCG | 0.0761
94 | GAACCTAA | 0.0715
95 | AGGAGACG | 0.0737
96 | CCGAAGCC | 0.0694
97 | CGAACTCA | 0.0718
98 | AGCATATA | 0.0807
99 | CGCTTCGC | 0.0686
100 | CCTCCTTA | 0.0752

Row | Sequence | binding signal (normalized occupancy)
101 | CCAGATTA | 0.0748
102 | AATGGGGG | 0.0803
103 | GTCCACGA | 0.0798
104 | CGAGACAG | 0.0748
105 | AAGGGAGC | 0.0702
106 | GCTAGACC | 0.0672
107 | TAAGACCA | 0.0783
108 | AGACTGAA | 0.0755
109 | ATTCACAG | 0.0727
110 | GTCCCGCA | 0.0741
111 | AACGCAAG | 0.073
112 | CGCGGCCC | 0.0708
113 | CTAAGAGC | 0.0702
114 | AGACGCTG | 0.0702
115 | CTAATTGC | 0.0729
116 | ATCGAACC | 0.0732
117 | TATGGTAA | 0.081
118 | GTGTCGTA | 0.0815
119 | CCGAAAGG | 0.0699
120 | GAGACGTA | 0.0761
121 | TAAGGGTA | 0.0739
122 | ACAATTAG | 0.0771
123 | CCTTGGCC | 0.0689
124 | GACTGACA | 0.0755
125 | CCCCCACC | 0.0787

Row | Sequence | binding signal (normalized occupancy)
126 | ATTTGCGG | 0.068
127 | AGTTAAAT | 0.0717
128 | CCTTGTCA | 0.0846
129 | AGTAACCC | 0.0796
130 | ATGACAGA | 0.0791
131 | CAATGGCA | 0.0773
132 | ATATTAAA | 0.0771
133 | CGCGTAGC | 0.0692
134 | CCCATATC | 0.0823
135 | ATTTTTAG | 0.0756
136 | AGAGCGAA | 0.0759
137 | ATGAGTAA | 0.0779
138 | CCGACGTC | 0.0662
139 | GTGCCTAA | 0.0821
140 | ATGTGCAC | 0.0959
141 | AAACTGCG | 0.0655
142 | ACCTCAAC | 0.0767
143 | AGTCAGCA | 0.0751
144 | GAAGTTGA | 0.0753
145 | ATTATCTA | 0.0841
146 | TCCCGCAA | 0.0737
147 | GTATTCTA | 0.0797
148 | CGTTGCTA | 0.0843
149 | TAACCCCA | 0.0802
150 | CAGCTCAA | 0.0659

Row | Sequence | binding signal (normalized occupancy)
151 | CGCTCTTA | 0.0705
152 | GAACATGC | 0.089
153 | CGAGAGGA | 0.0739
154 | ATGCGCAA | 0.0792
155 | TGCATGAA | 0.0821
156 | CCCCCTGC | 0.0849
157 | AAGACGAG | 0.0652
158 | ACTATGCC | 0.0749
159 | CGCTCAGC | 0.0654
160 | AATAGAAC | 0.0739
161 | ATGGGGGC | 0.0831
162 | CTGTCAGC | 0.0724
163 | ACGGTAGC | 0.0766
164 | GTTTAAAA | 0.076
165 | ACACATTC | 0.0866
166 | ATCAGCAC | 0.0789
167 | AACACTGC | 0.0702
168 | GCGGTAAA | 0.0732
169 | CTTGTTGC | 0.0728
170 | GAGTCGCC | 0.072
171 | CCAATGCA | 0.0795
172 | ACTTGTTG | 0.0737
